{"sequences": {"note": "Chains of the proteins cited; added tags and fusions are not shown.", "UniProt Q05397": "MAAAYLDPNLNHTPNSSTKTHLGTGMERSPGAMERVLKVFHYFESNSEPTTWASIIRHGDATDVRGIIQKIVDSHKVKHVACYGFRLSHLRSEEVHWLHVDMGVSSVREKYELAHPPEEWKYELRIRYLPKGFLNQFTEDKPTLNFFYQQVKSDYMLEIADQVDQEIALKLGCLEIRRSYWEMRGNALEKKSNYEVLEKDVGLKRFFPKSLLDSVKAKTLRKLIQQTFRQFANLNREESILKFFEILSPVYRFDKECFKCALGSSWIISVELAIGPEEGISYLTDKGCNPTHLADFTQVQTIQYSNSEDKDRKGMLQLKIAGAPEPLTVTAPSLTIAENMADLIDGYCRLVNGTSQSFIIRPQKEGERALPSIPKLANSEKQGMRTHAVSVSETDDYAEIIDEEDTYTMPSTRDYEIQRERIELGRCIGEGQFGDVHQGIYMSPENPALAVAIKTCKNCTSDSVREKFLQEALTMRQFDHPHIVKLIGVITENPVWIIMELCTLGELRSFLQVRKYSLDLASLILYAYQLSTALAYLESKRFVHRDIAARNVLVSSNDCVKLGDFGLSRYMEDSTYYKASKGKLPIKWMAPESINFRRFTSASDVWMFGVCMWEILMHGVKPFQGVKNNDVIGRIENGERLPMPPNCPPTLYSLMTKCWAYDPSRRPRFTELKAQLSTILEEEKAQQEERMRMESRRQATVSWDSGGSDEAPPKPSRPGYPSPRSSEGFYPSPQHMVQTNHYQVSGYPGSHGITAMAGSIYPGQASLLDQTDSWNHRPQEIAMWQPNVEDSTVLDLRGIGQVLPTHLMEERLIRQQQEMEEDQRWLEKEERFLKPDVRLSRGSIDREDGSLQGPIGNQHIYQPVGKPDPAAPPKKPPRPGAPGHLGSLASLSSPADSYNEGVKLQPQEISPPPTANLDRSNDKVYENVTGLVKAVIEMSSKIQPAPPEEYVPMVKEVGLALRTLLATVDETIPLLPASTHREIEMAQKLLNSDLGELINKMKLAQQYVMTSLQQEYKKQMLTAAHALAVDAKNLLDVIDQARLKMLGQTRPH", "UniProt Q9H792": "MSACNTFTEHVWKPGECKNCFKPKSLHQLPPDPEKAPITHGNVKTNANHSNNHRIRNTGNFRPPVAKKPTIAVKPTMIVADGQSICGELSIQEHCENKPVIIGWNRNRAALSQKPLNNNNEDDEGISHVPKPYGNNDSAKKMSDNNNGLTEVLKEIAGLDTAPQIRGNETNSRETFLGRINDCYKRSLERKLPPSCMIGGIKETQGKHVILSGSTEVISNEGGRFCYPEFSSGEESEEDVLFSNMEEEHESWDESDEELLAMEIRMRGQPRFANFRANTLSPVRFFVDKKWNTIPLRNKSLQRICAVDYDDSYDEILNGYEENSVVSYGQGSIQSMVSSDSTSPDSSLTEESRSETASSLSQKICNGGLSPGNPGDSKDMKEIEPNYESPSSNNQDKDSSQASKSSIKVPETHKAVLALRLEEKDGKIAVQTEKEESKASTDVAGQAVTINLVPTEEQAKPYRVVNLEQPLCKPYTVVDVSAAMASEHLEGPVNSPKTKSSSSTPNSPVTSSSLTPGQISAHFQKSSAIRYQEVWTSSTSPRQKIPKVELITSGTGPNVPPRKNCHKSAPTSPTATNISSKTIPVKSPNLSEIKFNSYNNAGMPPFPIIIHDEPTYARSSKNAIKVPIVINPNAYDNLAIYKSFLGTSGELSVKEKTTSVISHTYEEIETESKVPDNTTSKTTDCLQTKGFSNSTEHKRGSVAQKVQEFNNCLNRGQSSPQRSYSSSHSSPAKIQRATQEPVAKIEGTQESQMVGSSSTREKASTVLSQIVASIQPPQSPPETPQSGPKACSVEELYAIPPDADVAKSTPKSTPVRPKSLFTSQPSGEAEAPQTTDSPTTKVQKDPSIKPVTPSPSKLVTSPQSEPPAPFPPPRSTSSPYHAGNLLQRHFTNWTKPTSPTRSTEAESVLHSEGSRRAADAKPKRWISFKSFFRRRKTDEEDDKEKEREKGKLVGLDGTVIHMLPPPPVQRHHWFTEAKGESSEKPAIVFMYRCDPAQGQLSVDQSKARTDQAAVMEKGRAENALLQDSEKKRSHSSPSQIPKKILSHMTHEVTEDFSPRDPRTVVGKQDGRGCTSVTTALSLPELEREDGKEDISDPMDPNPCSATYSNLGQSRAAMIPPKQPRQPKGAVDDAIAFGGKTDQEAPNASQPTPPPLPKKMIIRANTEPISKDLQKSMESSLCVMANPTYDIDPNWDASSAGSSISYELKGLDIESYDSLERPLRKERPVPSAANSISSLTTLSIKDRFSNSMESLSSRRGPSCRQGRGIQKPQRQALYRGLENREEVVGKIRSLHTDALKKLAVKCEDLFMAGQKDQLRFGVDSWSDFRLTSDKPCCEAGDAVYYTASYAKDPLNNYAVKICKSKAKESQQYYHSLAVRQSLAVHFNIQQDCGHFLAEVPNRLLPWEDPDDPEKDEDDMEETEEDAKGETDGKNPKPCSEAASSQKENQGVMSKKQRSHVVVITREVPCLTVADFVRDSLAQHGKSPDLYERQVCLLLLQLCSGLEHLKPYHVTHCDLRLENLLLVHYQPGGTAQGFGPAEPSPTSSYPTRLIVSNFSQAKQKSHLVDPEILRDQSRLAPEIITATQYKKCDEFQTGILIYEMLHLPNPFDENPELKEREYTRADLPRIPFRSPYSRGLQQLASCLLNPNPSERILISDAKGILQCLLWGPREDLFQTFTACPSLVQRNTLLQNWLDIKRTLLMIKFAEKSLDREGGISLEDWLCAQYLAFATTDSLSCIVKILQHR"}, "source": "paper PMC7368075", "key": {"[1]": {"target": "HA-FAK (UniProt Q05397)", "assay": "co-IP; lysates of 293T cells expressing the indicated plasmids (with AXL WT or kinase dead); anti-HA FAK immunoprecipitation, western blot"}, "[2]": {"target": "Myc-PEAK1 (human) (UniProt Q9H792)", "assay": "co-IP; lysates of 293T cells expressing the indicated plasmids (with or without AXL WT or kinase dead in Fig. 6g); anti-Myc immunoprecipitation, western blot"}}, "note": "These are yes or no findings as the source states them, for the method shown. In cells and extracts the contact can be indirect. Some entries that bind do so weakly or less than the wild type. For some assays here: Where a sequence is shown, tags or fusion partners need not be part of it."}
{"binder": "NEDD9 expressed in 293T cells (co-immunoprecipitation with HA-FAK) (protein, UniProt Q14511 1-834) MKYKNLMARALYDNVPECAEELAFRKGDILTVIEQNTGGLEGWWLCSLHGRQGIVPGNRVKLLIGPMQETASSHEQPASGLMQQTFGQQKLYQVPNPQAAPRDTIYQVPPSYQNQGIYQVPTGHGTQEQEVYQVPPSVQRSIGGTSGPHVGKKVITPVRTGHGYVYEYPSRYQKDVYDIPPSHTTQGVYDIPPSSAKGPVFSVPVGEIKPQGVYDIPPTKGVYAIPPSACRDEAGLREKDYDFPPPMRQAGRPDLRPEGVYDIPPTCTKPAGKDLHVKYNCDIPGAAEPVARRHQSLSPNHPPPQLGQSVGSQNDAYDVPRGVQFLEPPAETSEKANPQERDGVYDVPLHNPPDAKGSRDLVDGINRLSFSSTGSTRSNMSTSSTSSKESSLSASPAQDKRLFLDPDTAIERLQRLQQALEMGVSSLMALVTTDWRCYGYMERHINEIRTAVDKVELFLKEYLHFVKGAVANAACLPELILHNKMKRELQRVEDSHQILSQTSHDLNECSWSLNILAINKPQNKCDDLDRFVMVAKTVPDDAKQLTTTINTNAEALFRPGPGSLHLKNGPESIMNSTEYPHGGSQGQLLHPGDHKAQAHNKALPPGLSKEQAPDCSSSDGSERSWMDDYDYVHLQGKEEFERQQKELLEKENIMKQNKMQLEHHQLSQFQLLEQEITKPVENDISKWKPSQSLPTTNSGVSAQDRQLLCFYYDQCETHFISLLNAIDALFSCVSSAQPPRIFVAHSKFVILSAHKLVFIGDTLTRQVTAQDIRNKVMNSSNQLCEQLKTIVMATKMAALHYPSTTALQEMVHQVTDLSRNAQLFKRSLLEMATF", "values": [{"measurement": "binding", "setting": "[1]", "result": "binds"}]}
{"binder": "mouse AXL-WT (receptor, UniProt Q00993 19-888) AHKDTQTEAGSPFVGNPGNITGARGLTGTLRCELQVQGEPPEVVWLRDGQILELADNTQTQVPLGEDWQDEWKVVSQLRISALQLSDAGEYQCMVHLEGRTFVSQPGFVGLEGLPYFLEEPEDKAVPANTPFNLSCQAQGPPEPVTLLWLQDAVPLAPVTGHSSQHSLQTPGLNKTSSFSCEAHNAKGVTTSRTATITVLPQRPHHLHVVSRQPTELEVAWTPGLSGIYPLTHCNLQAVLSDDGVGIWLGKSDPPEDPLTLQVSVPPHQLRLEKLLPHTPYHIRISCSSSQGPSPWTHWLPVETTEGVPLGPPENVSAMRNGSQVLVRWQEPRVPLQGTLLGYRLAYRGQDTPEVLMDIGLTREVTLELRGDRPVANLTVSVTAYTSAGDGPWSLPVPLEPWRPGQGQPLHHLVSEPPPRAFSWPWWYVLLGALVAAACVLILALFLVHRRKKETRYGEVFEPTVERGELVVRYRVRKSYSRRTTEATLNSLGISEELKEKLRDVMVDRHKVALGKTLGEGEFGAVMEGQLNQDDSILKVAVKTMKIAICTRSELEDFLSEAVCMKEFDHPNVMRLIGVCFQGSDREGFPEPVVILPFMKHGDLHSFLLYSRLGDQPVFLPTQMLVKFMADIASGMEYLSTKRFIHRDLAARNCMLNENMSVCVADFGLSKKIYNGDYYRQGRIAKMPVKWIAIESLADRVYTSKSDVWSFGVTMWEIATRGQTPYPGVENSEIYDYLRQGNRLKQPVDCLDGLYALMSRCWELNPRDRPSFAELREDLENTLKALPPAQEPDEILYVNMDEGGSHLEPRGAAGGADPPTQPDPKDSCSCLTAADVHSAGRYVLCPSTAPGPTLSADRGCPAPPGQEDGA", "values": [{"measurement": "binding", "setting": "[2]", "result": "binds"}]}
